# Data as given in US10363239B2, “Method for inhibiting growth of cancer cells” (Pain Therapeutics, Inc., priority 2013, dated 2019).
# System: MiaPaCa2 cell implants
# Assay: Xenograft survival study
# Type: in vivo, Nu/Nu mice
# Details: gemcitabine 50 mg/kg i.p. bi-weekly; n=8
# Procedure: FIGS. 34A and 34B illustrate Kaplan-Meier survival curves (FIG. 34A) and averaged tumor volumes (FIG. 34B) in a xenograft study in which MiaPaCa2 cells were implanted in Nu/Nu mice. […] FIG. 34B illustrates average tumor volumes (mm3) in mice treated with vehicle alone (black diamonds), gemcitabine (open squares), Compound C0105 at 10 mg/kg (black triangles) and Compound C0105 at 100 mg/kg (open diamonds).
# Mice were monitored individually and the treatment effect was compared to each mouse's own original tumor on the treatment day 0. The endpoint of the study was a tumor volume of 1500 mm^3 or 45 days, whichever comes first. The animals were euthanized when the endpoint was reached. Responders were followed longer (survival study). The Table below illustrates the drug treatment administered to the mice.
# A third xenograft study was designed to measure survival rather than tumor volume at a designated time point.
structure (smiles),measurement,value
"Nc1ccn([C@@H]2O[C@H](CO)[C@@H](O)C2(F)F)c(=O)n1 [gemcitabine, reference compound]",Survival to 45 days without tumors reaching 1500 mm^3,two mice treated with gemcitabine reached 45 days
